Among all 310,000 compounds or so, about 2,200 (0.71%) showed an effect of 50% or more. Effects have a minus sign here. The list shows a part of the results.

human ether-à-go-go-related gene (hERG) potassium channel, sequence (Q12809 whole entry, looked up): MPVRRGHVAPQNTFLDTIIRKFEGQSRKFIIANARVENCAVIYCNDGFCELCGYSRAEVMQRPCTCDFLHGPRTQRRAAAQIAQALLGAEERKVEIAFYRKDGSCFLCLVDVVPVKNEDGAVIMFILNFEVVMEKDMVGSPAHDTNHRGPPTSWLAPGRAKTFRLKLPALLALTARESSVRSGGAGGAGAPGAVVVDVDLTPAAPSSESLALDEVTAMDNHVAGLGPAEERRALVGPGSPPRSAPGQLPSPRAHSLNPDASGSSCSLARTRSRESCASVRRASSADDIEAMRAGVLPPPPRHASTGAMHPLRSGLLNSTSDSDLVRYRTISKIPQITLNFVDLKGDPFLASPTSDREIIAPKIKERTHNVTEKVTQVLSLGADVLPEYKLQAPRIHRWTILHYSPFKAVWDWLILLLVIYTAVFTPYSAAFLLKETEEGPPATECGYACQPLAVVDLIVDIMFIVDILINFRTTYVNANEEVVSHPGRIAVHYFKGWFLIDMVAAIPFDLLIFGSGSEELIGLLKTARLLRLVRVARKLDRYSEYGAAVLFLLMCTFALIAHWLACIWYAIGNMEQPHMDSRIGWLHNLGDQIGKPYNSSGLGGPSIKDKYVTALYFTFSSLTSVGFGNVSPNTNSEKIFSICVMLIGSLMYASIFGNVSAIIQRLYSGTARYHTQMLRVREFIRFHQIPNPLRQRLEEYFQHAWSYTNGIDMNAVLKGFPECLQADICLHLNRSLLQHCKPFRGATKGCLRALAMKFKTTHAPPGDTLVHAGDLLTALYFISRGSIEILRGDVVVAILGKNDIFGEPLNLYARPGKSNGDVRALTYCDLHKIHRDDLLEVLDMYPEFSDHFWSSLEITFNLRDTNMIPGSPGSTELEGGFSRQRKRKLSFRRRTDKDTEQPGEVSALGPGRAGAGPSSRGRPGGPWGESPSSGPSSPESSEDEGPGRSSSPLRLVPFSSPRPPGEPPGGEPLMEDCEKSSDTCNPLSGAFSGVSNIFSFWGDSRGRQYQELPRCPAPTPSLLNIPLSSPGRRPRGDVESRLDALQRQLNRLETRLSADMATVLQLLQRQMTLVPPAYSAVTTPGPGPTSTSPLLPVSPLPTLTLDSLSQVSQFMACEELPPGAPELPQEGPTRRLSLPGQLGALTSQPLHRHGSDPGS

This assay has as its target human ether-à-go-go-related gene (hERG) potassium channel (human, UniProt Q12809). Nature of the assay: primary screen, population patch clamp on CHO cells stably expressing hERG.
On to `COc1ccc(Cl)cc1NC(=O)NCCCl`, for which the “hERG current change (%, negative = inhibition) at 1uM” value is on record as 9.78%.

Take `COc1cccc(CN(C)C(=O)c2cc(S(=O)(=O)N3CCCCCC3)ccc2OC)c1`: the “hERG current change (%, negative = inhibition) at 1uM” value stood at 3.19%.

For the molecule `CCC(=O)N1CC(=O)Nc2ccc(F)cc2C1c1ccc(F)cc1` (stereo not drawn), the “hERG current change (%, negative = inhibition) at 1uM” value is given as 7.59%.

As for `COc1ccccc1CC(=O)NNC(=O)c1ccco1`, the “hERG current change (%, negative = inhibition) at 1uM” value is recorded as 15.7%.

Consider `COc1ccc(/C=N/Nc2cc(C)nc(-n3nc(C)cc3C)n2)cc1`, for which the “hERG current change (%, negative = inhibition) at 1uM” value came to 5.85%.

On to `O=[N+]([O-])c1ccc(O)c(Nc2c([N+](=O)[O-])ccc3nonc23)c1`, for which the “hERG current change (%, negative = inhibition) at 1uM” value turned out to be 17.3%.

As for `CCOC(=O)c1c(NC(=O)C[n+]2ccccc2)sc2c1CCCC2.[Cl-]`, the “hERG current change (%, negative = inhibition) at 1uM” value came to 14.3%.

With `Cc1ccc2cc3c(nc2c1)N(Cc1ccco1)CC3`, the “hERG current change (%, negative = inhibition) at 1uM” value came out at 6.42%.

Turning to `CCN(CC)CCOC(=O)c1cc(Cl)c(N)cc1OC.Cl`, the “hERG current change (%, negative = inhibition) at 1uM” value amounted to 4.81%.

As to `CCC(CC)NC(=O)Cc1ccccc1OC`, the “hERG current change (%, negative = inhibition) at 1uM” value was determined as 1.85%.

For the molecule `Cn1c(=O)c2c(nc(N3CCCC3)n2CC(O)CO)n(C)c1=O` (stereo not drawn), the “hERG current change (%, negative = inhibition) at 1uM” value amounted to 2.91%.

As to `O=C1C2C3C=CC(C4CC34)C2C(=O)N1/N=C/c1cccs1` (stereo not drawn), the “hERG current change (%, negative = inhibition) at 1uM” value is 17.8%.

For `O=[N+]([O-])c1ccc(NC(=S)NCC(c2cccnc2)N2CCOCC2)cc1` (stereo not drawn), the “hERG current change (%, negative = inhibition) at 1uM” value is listed as -5.08%.

For `COc1ccc(C(CC(=O)c2ccc(C)cc2)Nc2ccc([N+](=O)[O-])cc2)cc1` (stereo not drawn), the “hERG current change (%, negative = inhibition) at 1uM” value was found to be 5.99%.

Turning to `Cc1n[nH]c(=S)n1/N=C/c1ccc(-c2ccccc2[N+](=O)[O-])o1`, the “hERG current change (%, negative = inhibition) at 1uM” value is recorded as 2.78%.

As to `CC(C)CNS(=O)(=O)c1ccc(CCC(=O)N2CCOCC2)cc1`, the “hERG current change (%, negative = inhibition) at 1uM” value is reported as 5.66%.

On to `CN1CCN(S(=O)(=O)c2ccc(NC(=O)C(C)(C)C)cc2)CC1`, for which the “hERG current change (%, negative = inhibition) at 1uM” value came out at 8.41%.

Regarding `CCN(CC(=O)Nc1ccc2c(c1)OCCO2)C(=O)/C=C/c1ccc(OC)c(OC)c1`, the “hERG current change (%, negative = inhibition) at 1uM” value was determined as 5.66%.

As for `CCOC(=O)CSc1nnc(CCc2nc3ccccc3[nH]2)n1C`, the “hERG current change (%, negative = inhibition) at 1uM” value is 5.81%.

On to `COC(=O)CN(c1nc(C)cc(OC)n1)S(=O)(=O)c1ccc(C)cc1`, for which the “hERG current change (%, negative = inhibition) at 1uM” value came to 12.4%.

As for `c1ccc(-c2nn3c(Cn4nnc5ccccc54)nnc3s2)cc1`, the “hERG current change (%, negative = inhibition) at 1uM” value was determined as 4.35%.

For the molecule `CC(C)NC(=O)c1ccc2c(c1)N(CC(=O)N1CCCCC1)C(=O)C(C)(C)O2`, the “hERG current change (%, negative = inhibition) at 1uM” value stood at 10.4%.

Regarding `COc1cc(C(N)=O)ccc1OCc1ccccc1`, the “hERG current change (%, negative = inhibition) at 1uM” value was 2.91%.

On to `c1ccc(-n2ncc3c(N4CCCCC4)ncnc32)cc1`, for which the “hERG current change (%, negative = inhibition) at 1uM” value was found to be 4.85%.

As for `COc1cccc(COc2nc3c(c(=O)n(C)c(=O)n3C)n2C)c1`, the “hERG current change (%, negative = inhibition) at 1uM” value was 14.6%.

On to `COC(=O)c1ccc(COc2ccc(/C=N/Nc3nc(C)cc(=O)[nH]3)cc2)cc1`, for which the “hERG current change (%, negative = inhibition) at 1uM” value is given as 15.5%.

As for `N#Cc1cc2c(=O)n3ccccc3nc2n(-c2ccccc2Cl)c1=O`, the “hERG current change (%, negative = inhibition) at 1uM” value turned out to be 11%.

Regarding `O=C1NN(c2ccccc2)C(=O)C2C3C=CC(C4CC34)C12` (stereo not drawn), the “hERG current change (%, negative = inhibition) at 1uM” value worked out at 10.8%.

Consider `Cc1ccccc1OCC(=O)N/N=C/c1cc2ccccc2nc1Cl`, for which the “hERG current change (%, negative = inhibition) at 1uM” value is -3.3%.

As to `COc1ccc(C(CNC(=O)Cc2c(F)cccc2Cl)N2CCCCC2)cc1` (stereo not drawn), the “hERG current change (%, negative = inhibition) at 1uM” value is 6.13%.

With `CC(=O)Oc1ccc(-c2nc3cc(Cl)ccc3c(=O)o2)cc1`, the “hERG current change (%, negative = inhibition) at 1uM” value came to 11.8%.

In the case of `CCCCCNCc1cccc(Br)c1.Cl`, the “hERG current change (%, negative = inhibition) at 1uM” value came out at 3.77%.

For `CC1=C(C(=O)OCc2ccc3c(c2)OCO3)C(c2ccccc2OCc2ccccc2)NC(=O)N1` (stereo not drawn), the “hERG current change (%, negative = inhibition) at 1uM” value is on record as 18%.

Consider `O=C(Nc1c[nH]c(=O)[nH]c1=O)c1ccc([N+](=O)[O-])cc1`, for which the “hERG current change (%, negative = inhibition) at 1uM” value was found to be 12.7%.

Regarding `COc1cccc(C(=O)NC2CCCc3c2cnn3-c2ccc(C)c(C)c2)c1OC` (stereo not drawn), the “hERG current change (%, negative = inhibition) at 1uM” value is 11.5%.

`O=C(Nc1ccc(N2CCOCC2)cc1)C1CC(O)CN1S(=O)(=O)c1ccc(Cl)cc1` (stereo not drawn): the “hERG current change (%, negative = inhibition) at 1uM” value is recorded as 13.9%.

For the molecule `COc1ccc(OC)c(S(=O)(=O)CC(=O)c2cc3ccc(OC)cc3oc2=O)c1`, the “hERG current change (%, negative = inhibition) at 1uM” value turned out to be 13.6%.

For `COc1ccc(NC(=O)c2ccc(-n3c(C)ccc3C)cc2)c(OC)c1`, the “hERG current change (%, negative = inhibition) at 1uM” value was 10.4%.

In the case of `CCNC(=O)CSc1nc(-c2ccc(F)cc2)cs1`, the “hERG current change (%, negative = inhibition) at 1uM” value worked out at 20.8%.

`COc1ccc2cc3cc(C(=O)Nc4ccc5c(c4)OCCO5)oc3nc2c1`: the “hERG current change (%, negative = inhibition) at 1uM” value is recorded as 0.374%.

In the case of `CC1=NN(c2ccccc2)C(=O)C1c1ccccc1` (stereo not drawn), the “hERG current change (%, negative = inhibition) at 1uM” value was determined as 10.4%.

On to `Cl.O=S(=O)(NCCN1CCOCC1)c1ccc(Cl)c(Cl)c1`, for which the “hERG current change (%, negative = inhibition) at 1uM” value was determined as 12.9%.

For `CCOC(=O)C1CCN(C(=O)c2cc(S(=O)(=O)N3CCOCC3)ccc2C)CC1`, the “hERG current change (%, negative = inhibition) at 1uM” value is 6.46%.

As to `O=S(=O)(c1cccs1)N1CN(Cc2ccc(F)cc2)c2nc3ccccc3nc21`, the “hERG current change (%, negative = inhibition) at 1uM” value is 3.68%.

Take `Cc1nc(/N=C(\N)NC(=O)N2c3ccccc3Sc3ccccc32)nc2ccccc12`: the “hERG current change (%, negative = inhibition) at 1uM” value was determined as 11.9%.

The values are drawn from article PMC4336329 (PLoS ONE, 2015).
